Assay results as given in patent US3937832A, “Esters of 2,2-diphenyl-cyclopropane-carboxylic acids as cough suppressants” (Societe anonyme dite: Hexachimie, priority 1974, dated 1976).
The name of at least one read-out is uncertain. Some compounds share one range, which may span the group rather than tell each member.

Experiments:
[1] = test system: cough reaction to stimulation of the upper laryngeal nerves; experiment: Anti-tussive activity: Domenjoz method (stimulation of upper laryngeal nerves); type: in vivo, cat; conditions: anaesthetised cats, intravenous (femoral vein)
Procedure: The products tested are dissolved in a […] sodium chloride solution or, if they are insoluble in this solution, suspended using "Tween 80" (for oral and intraperitoneal administration) or dissolved in polyethylene glycol 300 (for intravenous administration).
Cats are anaesthetised by intraperitoneal injection of 30 mg./kg. of sodium mebubarbital. The arterial pressure is measured on the femoral artery by a Statham P 23 Db gauge. A tracheotomy is carried out; a Y-shaped cannula allows a part of the air breathed out to be branched off onto a Statham PM 6 gauge; the cardiac rhythm is measured by integration of the QRS complexes of the electrocardiogram. All these measurements are amplified and recorded on a Beckman Dynograph. The two upper laryngeal nerves are very carefully dissected and stimulated for 10 seconds by a surging current generated by a Hugo Sachs Stimulator I: voltage 3 volts, duration […], frequency 50 cycles/second. The test products are injected into the femoral vein. The first stimulation takes place 5 minutes after administration of the product and then every 5 minutes until the reaction returns to the initial amplitude. Each nerve is stimulated in turn (left-hand nerve: 5, 15, 25 minutes etc; right-hand nerve 10, […] minutes etc. after treatment).
+ marked diminution of cough
++ suppression of cough for 5 to 15 minutes
+++ suppression of cough for more than 15 minutes

[2] = test system: skin reflex; experiment: Local anaesthetic activity: technique of Bulbring and Wajda; type: in vivo, guinea pig; conditions: guinea pigs, intradermal 0.1 ml.
[3] = concentration 0.50 0/00, over 30 minutes
[4] = concentration 1 0/00, over 30 minutes
[5] = concentration 0.25 0/00, over 30 minutes

Compound | Rating (anti-tussive activity) [1] | inhibition percentage (local anaesthetic activity) [2, 3] [%] | inhibition percentage (local anaesthetic activity) [2, 4] [%] | inhibition percentage (local anaesthetic activity) [2, 5] [%]
O=C(OCCOCCN1CCCCC1)C1CC1(c1ccccc1)c1ccccc1 (centres unmarked) [Example 18] | ++ (suppression of cough for 5 to 15 minutes) |  |  | 
O=C(OCCOCCN1CCCC1)C1CC1(c1ccccc1)c1ccccc1 (centres unmarked) [Example 2, 2-(2'-pyrrolidino-ethoxy)-ethyl ester of 2,2-diphenyl-cyclopropane carboxylic acid] |  | 0 | 19 | 
O=C(OCCN1CCCC1)C1CC1(c1ccccc1)c1ccccc1 (centres unmarked) [Example 5] | ++ (suppression of cough for 5 to 15 minutes) | 81 | 97 | 84
O=C(OCCN1CCCCC1)C1CC1(c1ccccc1)c1ccccc1 (stereo not drawn) [Example 1, β-Piperidino-ethyl ester of 2,2-diphenyl-cyclopropane-carboxylic acid] | +++ (suppression of cough for more than 15 minutes) | 32 | 64 | 14
CN(C)CCOC(=O)C1CC1(c1ccccc1)c1ccccc1 (centres unmarked) [Example 4] |  | 87 | 97 | 68
COc1ccc(C2(c3ccc(OC)cc3)CC2C(=O)OCCN2CCCCC2)cc1 (centres unmarked) [Example 16] |  | 0 | 46 | 
CC1CCCN(CCOC(=O)C2CC2(c2ccccc2)c2ccccc2)C1 (centres unmarked) [Example 10] | ++ (suppression of cough for 5 to 15 minutes) | 36 | 62 | 
Cc1ccc(C2(c3ccc(C)cc3)CC2C(=O)OCCN2CCCCC2)cc1 (centres unmarked) [Example 14] | ++ (suppression of cough for 5 to 15 minutes) | 34 | 40 | 
O=C(OCCN1CCCCC1)C1CC1(c1ccc(Cl)cc1)c1ccc(Cl)cc1 (centres unmarked) [Example 15] |  | 26 | 38 | 
CC1CCCC(C)N1CCOC(=O)C1CC1(c1ccccc1)c1ccccc1 (centres unmarked) [Example 12] | ++ (suppression of cough for 5 to 15 minutes) | 78 | 89 | 49
O=C(OCCN1CCOCC1)C1CC1(c1ccccc1)c1ccccc1 (stereo not drawn) [Example 3, β-Morpholino-ethyl ester of 2,2-diphenyl-cyclopropane-carboxylic acid] |  | 0 | 26 | 
O=C(OCCN1CCCCCC1)C1CC1(c1ccccc1)c1ccccc1 (centres unmarked) [Example 7] | ++ (suppression of cough for 5 to 15 minutes) |  |  | 
CN1CCN(CCOC(=O)C2CC2(c2ccccc2)c2ccccc2)CC1 (centres unmarked) [Example 9] |  | 0 | 35 | 
CC1CCN(CCOC(=O)C2CC2(c2ccccc2)c2ccccc2)CC1 (centres unmarked) [Example 11] |  | 49 | 81 | 18
Cc1ccc(C2(c3ccc(C)cc3)CC2C(=O)OCCN2CCCC2)cc1 (centres unmarked) [Example 13] | ++ (suppression of cough for 5 to 15 minutes) | 31 | 32 | 
CN1CCN(CCOCCOC(=O)C2CC2(c2ccccc2)c2ccccc2)CC1 (centres unmarked) [Example 20] |  | 0 | 0 | 
